# The other results are listed elsewhere or left out. At the low end of the ranking the order means little.
# Target: SIX1 homeodomain (reference allele) (UniProt Q15475)
# Assay: universal protein binding microarray
# Details: Universal all-10-mer PBM (8x60K, AMADID 030236), 300 nM GST-tagged protein, Alexa Fluor 488 anti-GST; buffer, salt, pH and temperature not stated; high values mean tight binding; most listed sequences are background and not binding sites; double strand, one strand shown
row,Sequence,binding signal [E-score]
1,GTTTGAGA,0.0377
2,CTTAAGGA,-0.0392
3,TGGCGAAA,-0.311
4,GAGATAGC,0.161
5,GGCCTAGA,-0.193
6,AGACCCAT,0.014
7,AGTCGCAG,-0.157
8,CTTTCTTC,-0.258
9,CCCGTTAG,-0.0499
10,CCTCTTAG,-0.0751
11,TGCGACAA,-0.189
12,GGAGAAGA,0.022
13,CTATAGAA,-0.00138
14,ATGGCAAT,-0.14
15,AACTAACA,-0.111
16,ATACAACC,0.159
17,AGAAGGCG,0.00611
18,AAAAATTC,-0.317
19,AAAAGATA,0.161
20,GCACCGCC,0.0724
21,ATTGTCGG,0.0446
22,GAAGCGAC,-0.163
23,ACTCGTCC,-0.0883
24,CGACCATC,-0.12
25,GACTGCCA,-0.296

row,Sequence,binding signal [E-score]
1,AGCCATAT,0.324
2,GTAGATTA,0.182
3,CTACTGCA,-0.102
4,ACAGTCCA,-0.165
5,GAATGAAC,-0.213
6,AAACTCCC,-0.118
7,CACCTCGA,0.0863
8,CAGTCAGA,0.0195
9,GTGTCCAA,0.221
10,AAGGGGAA,-0.223
11,CTAGCGAA,-0.281
12,CATATTAC,0.219
13,TGGCCACA,-0.104
14,ACGCTTCT,-0.105
15,AAACACCG,0.123
16,CGTCAGAC,-0.0794
17,AGCTCTTC,-0.0121
18,CGAAATAA,-0.131
19,ATATTGTA,0.294
20,CCGACAAG,0.0383
21,CCTCTAAC,0.0374
22,GTGCATTA,-0.131
23,GGCTCCTA,0.064
24,GCACCCCA,0.0983
25,ACTTAGGG,-0.0109

row,Sequence,binding signal [E-score]
1,GAGTATTA,0.261
2,CCGATTCG,0.0611
3,AACCATTC,-0.315
4,ATGTAAGC,0.00536
5,ATCCGCAA,0.256
6,CTAGTAAG,-0.0158
7,CAACCACC,-0.183
8,CTCAATAA,0.023
9,GTTGAAAA,-0.193
10,CCTCCTGC,-0.129
11,CTTGAGCC,-0.0139
12,AGCGGAGA,0.134
13,CGAGCCTA,-0.104
14,CCAAACAC,-0.095
15,AAGGGCCG,-0.141
16,AGGAGGGC,-0.0504
17,AACGGGTG,0.115
18,GGGACATA,0.0355
19,AATCGTCT,0.0676
20,ACCGCCAC,-0.0523
21,GCTACACA,-0.159
22,CCGGAACC,0.0328
23,GCTAGAGC,-0.226
24,CAAACGCG,-0.204
25,CTATTCAA,-0.0673

row,Sequence,binding signal [E-score]
1,CATGTAGG,0.05
2,CGATGACA,0.18
3,GGCGGAAA,-0.0892
4,AAGTGGAC,-0.0997
5,AAACATCA,-0.145
6,ACATGCAG,0.0415
7,GATTTATA,0.0474
8,CGACGGAG,-0.0295
9,AAAGTCTT,-0.333
10,CTTATAGC,-0.165
11,CAGTGCCG,0.0261
12,AGTGTTAA,0.0234
13,CAGTAAAA,-0.0573
14,GCAAACGC,-0.121
15,AAGACTTA,-0.183
16,ATGAATTA,0.0532
17,ACCCCCTA,0.258
18,AGAACGCA,-0.0979
19,ATCCTGCC,0.175
20,ACCAACTC,-0.148
21,AGTTTCGC,-0.178
22,CACATGTG,-0.243
23,TGTATGAA,0.149
24,CCGCCTCA,0.0502
25,CCCGATAC,0.438

row,Sequence,binding signal [E-score]
1,AGGCGAGC,-0.0907
2,TAGGTCGA,0.0126
3,GAACGCGC,-0.108
4,CTCTATCC,0.216
5,ATAGGGAA,-0.028
6,CGCACCGA,-0.0964
7,TAGGAATA,0.131
8,CGCATGCA,0.0791
9,ATGACCTC,-0.0438
10,GCCTGGGA,0.0422
11,ACTGCGTC,-0.188
12,ACAGAAAG,-0.159
13,CGTCTCTA,-0.0472
14,AACGAATT,-0.0853
15,TAAGGAAA,-0.332
16,GTATGGAC,0.116
17,GCGGTCAC,-0.169
18,ACAACAGT,-0.141
19,ACTATGAT,0.119
20,CCGTTTTA,0.0369
21,AGTTCAAT,-0.0637
22,ACGGGAGT,0.231
23,ATTGACTG,-0.0721
24,ACAGCGAT,0.0697
25,TATATGCA,0.0994

row,Sequence,binding signal [E-score]
1,CACAATTC,0.102
2,GCAAAACC,-0.145
3,ACACCTAG,0.231
4,ACTTAATG,-0.00827
5,CGGCTGAA,-0.182
6,CAAACCTG,-0.0736
7,ATGTGGTA,0.151
8,AAGTTATC,0.131
9,ACTACAAC,-0.0671
10,CAAACGAA,-0.126
11,CACTGGTA,0.269
12,CCACACCC,0.131
13,GACCTGGC,-0.00536
14,ATCTGTTA,-0.00763
15,AACTGAAA,-0.185
16,CGTGCGGC,-0.163
17,CGCATGAA,-0.0595
18,GATGACGC,0.0462
19,CGCGTTGC,-0.0952
20,CAGGTCCA,-0.142
21,AAGAGTTG,-0.11
22,AATTTGCG,-0.128
23,GCTGTGCA,-0.229
24,ACAGGCAT,-0.0511
25,AATCCCCA,0.212

row,Sequence,binding signal [E-score]
1,CCCTACGG,0.0883
2,ACCACGAG,-0.118
3,AATAATTC,-0.209
4,CATTCAAC,-0.103
5,ACAATCTG,0.0229
6,ATACAGCG,0.167
7,ATCAATCG,0.266
8,CTCGCCTA,-0.15
9,CACCCTGC,0.207
10,CGAGCTAC,-0.0148
11,TATACGCA,0.304
12,GAGGTTAA,-0.188
13,ACGTACAG,-0.0276
14,GGCCCGCC,-0.198
15,ACGGAGGG,0.115
16,CGAACGCA,-0.0719
17,GGTTCCGA,-0.189
18,CGGAATGA,0.121
19,TCCGCACA,0.0488
20,GCACTTTA,-0.179
21,AAACTAGC,-0.17
22,GAACTCCC,-0.0241
23,CGTCCTAC,0.0505
24,CCGCGTAA,-0.00478
25,GCCAATAC,0.16

row,Sequence,binding signal [E-score]
1,AGTGAGAG,-0.00284
2,CGTGGTTC,-0.168
3,ACAGCGAG,0.0875
4,GGTATCGA,0.463
5,ATCAAGGG,0.258
6,CAGGCCTG,-0.219
7,GCCCCCTA,-0.0893
8,CCTTCGCA,-0.129
9,GGTCGAGA,-0.072
10,CGTGTTGA,0.176
11,CGATGCGC,-0.0157
12,ATGTGGTG,0.0886
13,ATAAAGGG,-0.139
14,CTGTGATC,0.328
15,ATTCCCTG,-0.0532
16,CATCGCCA,-0.0374
17,CATGGTAC,0.0444
18,CAGATGGC,0.129
19,GCTCACGA,-0.143
20,GCTTGAGA,0.0238
21,CTCACGAG,-0.106
22,ATCAAAAA,0.153
23,CCAGCATA,0.0946
24,AAGACGTC,-0.026
25,CCTGCTAC,0.0839

row,Sequence,binding signal [E-score]
1,AAACATTC,-0.159
2,ATCGTAGA,0.193
3,GACTAAAC,-0.111
4,ACGGTAAT,0.0335
5,TGGGGAAA,0.00963
6,CTACTTGC,-0.0157
7,CAATATAA,0.109
8,GCAGTGGC,-0.218
9,CCTCACGC,-0.179
10,ATTCTTGG,-0.0567
11,CCCACCAA,-0.0249
12,AGTGGGCC,-0.334
13,CTCACTCC,-0.107
14,CAATGATC,0.31
15,AAAATTTG,-0.116
16,CCAGACCC,0.075
17,CGACCGCC,-0.215
18,CAACATAC,0.0508
19,AATTAATG,-0.00941
20,TATTGTCA,0.105
21,TAGCCCGA,-0.0898
22,GATCCTCA,0.295
23,TTAATAAA,-0.127
24,ACCGTGGG,-0.00766
25,AACCTGCT,0.0479

row,Sequence,binding signal [E-score]
1,AGTGCAAA,-0.143
2,ACTTTCAT,-0.162
3,AATCAAAG,-0.211
4,CTCAGGTA,0.16
5,GCGCAGTA,-0.0705
6,CAGATTTC,-0.126
7,ATCACCGC,0.191
8,ACTTAGCG,0.0127
9,AATAGACA,0.0469
10,TATTTACA,0.176
11,AACATCTG,-0.206
12,AAAATGAG,0.0679
13,AAAGCTAT,0.00446
14,CCATTGCA,-0.119
15,GAGATTGA,-0.0193
16,ACGGGCGC,-0.216
17,AAAACATA,-0.0275
18,ACCACAGA,0.0991
19,CATCCTCC,0.153
20,GCGCCAGA,-0.13
21,AGGAATCG,-0.13
22,GATGAGCC,0.249
23,TCACGAGA,0.00962
24,ACCGCATA,0.202
25,CCATGAGA,0.242

row,Sequence,binding signal [E-score]
1,GAAAGGAA,-0.345
2,GCGAAACC,0.00927
3,ATTTGACC,-0.0951
4,CCCTATAA,0.0541
5,ACGGTGAC,-0.106
6,CCGTATCG,0.457
7,ATCGAGGA,0.199
8,CGCCAAAG,-0.305
9,ACGCCGGA,0.119
10,ATAGCTTA,0.214
11,ACCGGCAC,0.0657
12,AACGTATT,0.104
13,GCACCCGC,0.0943
14,CCACATGG,-0.0309
15,CGTTTCAG,-0.153
16,AAAGCTTA,-0.101
17,AAAAGTTA,-0.18
18,ATACTTAA,0.19
19,ATCCGAGG,0.326
20,GGCAACAC,0.0683
21,AAATTTAC,-0.0872
22,TAGTAAAA,0.00847
23,AGGATCTA,0.174
24,ATGGACCG,-0.238
25,GTTACACA,-0.154

row,Sequence,binding signal [E-score]
1,AAACCGGT,0.0421
2,ATACAGTG,0.19
3,GTATAGGA,0.0623
4,AAATTCCG,-0.0667
5,ATCGAGCC,0.0621
6,ACTGGATG,-0.0141
7,ATGGCAGA,0.139
8,GGACCTAA,0.0132
9,GATAAATA,0.138
10,GCCTAACC,-0.15
11,GGCATTGA,-0.16
12,CTTCACGA,-0.114
13,CCGGAGCA,-0.0627
14,ACGAATAC,0.0962
15,AAGGCAGC,-0.219
16,CGACTTAG,-0.15
17,TGTACACA,-0.0577
18,GCAATGAC,-0.0743
19,CATCCATC,0.0812
20,ATCTTTGC,0.0855
21,AGGAATAC,0.211
22,CCACTACC,-0.0909
23,ATGATGCC,0.157
24,AGCCACAT,-0.0809
25,TCTAATAA,0.0732

row,Sequence,binding signal [E-score]
1,AAAGAACC,-0.156
2,GACGGCGA,-0.172
3,CCCGTTTA,0.0838
4,GCGACCAC,-0.0536
5,AGGCGGTC,-0.123
6,ACTTTGGG,-0.0954
7,GGGAAGGA,0.103
8,ATGAGCCC,0.117
9,GGGCCCAC,-0.35
10,TAGTAGAA,0.043
11,ACATCCTG,0.0768
12,AGCAGTGG,-0.181
13,TATTGACA,0.166
14,ACTCCCCG,0.0209
15,ACTTATCG,0.053
16,CTACAAAG,-0.0453
17,AAGGTCAA,-0.311
18,ATTGTAGG,0.0541
19,AGCCGCTG,-0.12
20,CATCGGGA,0.164
21,ATGCGGGG,-0.0579
22,CAACTACC,-0.0871
23,CCGCTTAG,-0.206
24,TCATCCGA,0.255
25,ACCCAAAT,-0.154

row,Sequence,binding signal [E-score]
1,CTCAGTCC,-0.0046
2,CCGCCAAC,0.0571
3,AGATGAAA,0.0685
4,TATTATGA,0.207
5,CGTAAGGA,0.0418
6,ATCTCGAA,0.0229
7,CAAGCTCA,-0.145
8,CATAGTGG,-0.0644
9,CGTTTAAG,-0.0763
10,TATCCGGA,0.391
11,CTACCAAA,-0.141
12,CACGGTAA,-0.0875
13,GCGTACCA,-0.0841
14,CGGGCGTC,-0.141
15,CATTGGCA,-0.0649
16,GATGAAGA,-0.0878
17,ATAATTGC,-0.089
18,CTGGATTA,0.177
19,AGCGCTAG,-0.133
